# Reference: the supplement of paper PMC10502849
# Counter-ions that a name gives are not always drawn. The list shows a part of the results. Most values come without repeats; read them as rough.
# Columns and labels:
# [1] = tested on: H9 teratoma-derived LAM model cells, TSC2-/-; assay: percent SyTOX+ dead cells; higher = more cytotoxic; conditions: 5 µM, treatment time 72 h, culture: 3D hyaluronic acid hydrogel
# [2] = tested on: H9 teratoma-derived LAM model cells, WT; assay: percent SyTOX+ dead cells; higher = more cytotoxic; conditions: 5 µM, treatment time 72 h, culture: 3D hyaluronic acid hydrogel, genotype: WT
# [3] = tested on: H9 teratoma-derived LAM model cells, TSC2-/-; assay: percent of cells invaded past median invasion distance of vehicle control; LAM is lymphangioleiomyomatosis; the cells come from teratomas of the human stem cell line H9; higher = more invasion; extreme values may be limits of the assay; conditions: 5 µM, treatment time 72 h, culture: 3D hyaluronic acid hydrogel
# [4] = tested on: H9 teratoma-derived LAM model cells, WT; assay: as above; conditions: 5 µM, treatment time 72 h, culture: 3D hyaluronic acid hydrogel, genotype: WT
# 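Wherever percent SyTOX+ dead cells is given: cells seeded atop a hyaluronic acid gel crosslinked via MMP-cleavable peptides, containing vitronectin peptides and methylcellulose, imaged live by high-content microscopy with automated analysis, one technical replicate per compound.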
# 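Wherever percent of cells invaded past median invasion distance of vehicle control is given: live cells imaged by high content microscopy and scored with in-house automated image analysis, one technical replicate per compound in each genotype and rapamycin condition.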
SMILES,percent SyTOX+ dead cells ([1]; rapamycin 0 nM) [%],percent SyTOX+ dead cells ([1]; rapamycin 20 nM) [%],percent SyTOX+ dead cells ([2]; rapamycin 0 nM) [%],percent SyTOX+ dead cells ([2]; rapamycin 20 nM) [%],percent ([3]; rapamycin 0 nM) [%],percent ([3]; rapamycin 20 nM) [%],percent ([4]; rapamycin 0 nM) [%],percent ([4]; rapamycin 20 nM) [%]
CC(C)CCN1c2nc(Nc3cc(F)c(O)c(F)c3)ncc2N(C)C(=O)C1C (stereo unspecified),58,53.1,45.5,40,3.36,7.48,1.85,3.17
CCCCCCCCCCCCCCCc1cccc(O)c1C(=O)O [Anacardic Acid],2.41,20.4,17.1,14.1,72.6,55.2,25.6,29.4
O=c1[nH]nc(Sc2ncc([N+](=O)[O-])s2)n1-c1ccc2c(c1)OCCO2,48.6,36,44.6,37.5,0,0,0,2.08
CN(C)CCOc1cc(-c2cn[nH]c2)ccc1NC(=O)C1COc2ccccc2O1 (stereo unspecified),18.6,19.3,41.4,43.4,0.48,6.42,0.59,2.04
O=C(NC1CCOCC1)c1ccc(-c2cc(-c3c[nH]nc3-c3ccccn3)ccn2)cc1,2.97,5.39,21.1,16.7,60.9,50.3,44.8,13.8
CC1=C(C(=O)Nc2cc3cn[nH]c3cc2F)C(c2ccc(C(F)(F)F)cc2)CC(=O)N1 (stereo unspecified),22.9,24.4,47.9,40.4,0.82,3.25,0,6.38
O=C(O)c1ccc(-n2nc(-c3ccccc3O)nc2-c2ccccc2O)cc1,12.4,6.83,4.05,5.92,90,25.1,55.2,62.9
"Cc1cc(Nc2cc(N3CCN(C)CC3)nc(Sc3ccc(NC(=O)C4CC4)cc3)n2)n[nH]1 [VX-680, MK-0457, Tozasertib, VX6]",16.4,13.8,13.6,8.91,7.87,46,1.81,3.47
O=C(NOCC1CC1)c1ccc(F)c(F)c1Nc1ccc(I)cc1Cl,8.88,4.45,4.87,5.08,33.6,28.4,29.9,24.4
Cc1ncc(-c2ccnc(Nc3ccc(S(C)(=O)=O)cc3)n2)n1C(C)C,43.1,32.2,31.3,36.3,3.19,12.4,1.2,1.27
O=C1Cc2c([nH]c3ccc([N+](=O)[O-])cc23)-c2ccccc2N1 [Alsterpaullone],27.1,27.8,29.5,21.1,8.42,13.4,7.37,3.85
Clc1ccc(C(c2ccc(Cl)cc2)n2cc[n+](CC(OCc3ccc(Cl)cc3Cl)c3ccc(Cl)cc3Cl)c2)cc1 (stereo unspecified),47.4,20.9,42.3,26.7,34.6,7.69,1.92,0
"O=C1NCc2c1c1c3ccccc3[nH]c1c1[nH]c3ccccc3c21 [K-252c, Staurosporine Aglycone]",21.4,17.6,27.8,34.2,3.57,5.6,7.41,1.8
COc1cc2nc(N3CCCN(C)CC3)nc(NC3CCN(Cc4ccccc4)CC3)c2cc1OC,11.3,7.44,13.3,5.75,86.7,71.2,45.1,31.4
Nc1ncnc2nc(-c3ccc(N4CCOCC4)nc3)cc(-c3cccc(Br)c3)c12 [ABT-702 dihydrochloride],10.7,14.2,17.4,14,24.6,6.69,37.9,39
O=C(NN=Cc1c(O)ccc2ccccc12)c1ccncc1,7.14,16.3,7.76,11.4,55.8,24,9.13,7.74
CS(=O)(=O)CCNCc1nc(-c2ccc3ncnc(Nc4ccc(OCc5cccc(F)c5)c(Cl)c4)c3c2)cs1,10.7,10.4,7.26,6.02,55.3,13.1,39.7,18.7
CN1CCc2c(c3ccccc3n2Cc2ccc(C(=O)NO)cc2)C1 [Tubastatin A (trifluoroacetate salt)],25.7,37.2,28.6,30.1,28.3,9.3,25.8,30.7
CN(C)c1ccc(-c2nc3ncc(Cl)c(N4CCN(CC(=O)Nc5nccs5)CC4)c3[nH]2)cc1,9.63,5.98,18.7,12.9,79.1,51.3,69.6,35.3
[O-][S+](c1ccccc1)c1ccc2nnnn2n1 (stereo unspecified),8.21,9.03,7.47,11.1,30.7,37.9,51.8,36.1
CCc1cc(CN2CC(C(=O)O)C2)sc1-c1noc(-c2ccc(Oc3ccccc3)cc2)n1,44.8,44,41.9,40.3,7.65,5.24,13.4,16
CC(C)(C#N)c1cc(Cn2cncn2)cc(C(C)(C)C#N)c1 [Anastrozole; Arimidex; ZD-1033; ICI-D1033],12.2,16.7,8.45,13.3,59.1,42.9,59.1,52.4
